{"source": "PubChem BioAssay (NCATS)", "note": "Inconclusive means that the source gave no clear call. Such entries were picked first, then a sample of the others. No potency is given beside an inconclusive call; the fits are too rough. Activity calls are given as the source filed them. Calls come from the whole dose curve; as a rule, active = well fitted cell-killing curve with a large enough effect; inconclusive = small, poorly fitted or top-dose-only effect, or effect the other way; inactive = no such curve, though single readings can be large or run the other way. Potency is the fitted concentration of half-maximal effect; tags give direction and shape of the fitted curve.", "data": [{"assay": "Quantitative High-Throughput drug screen in 47 multiple myeloma cell lines against the NCATS MIPE library collection: Karpas620_DSMZ cell viability assay (AID 1918959); note: nearly all actives have a fitted effect of over 30% in size", "conditions": "Karpas620 myeloma viability, CellTiter-Glo ATP luminescence, 48 h; viability (% of DMSO): at 45.8 µM (top of the series)", "description": "PI: Beverly A. Mock Ph.D.\nLaboratory of Cancer Biology and Genetics,\nCenter for Cancer Research, National Cancer Institute,\nNational Institute of Health, Bethesda, Maryland\nDrug resistance and disease progression are common in multiple myeloma (MM) patients, underscoring the need for new therapeutic combinations. […] We hypothesized that effective combinations would reduce MYC expression and enhance p16 activity. […] These preclinical data identify potentially useful drug combinations for evaluation in drug-resistant MM and reveal potential mechanisms of combined drug sensitivity.\nDescribed herein is the primary MIPE qHTS used to cherrypick compounds. Validated compounds were then further tested for potential synergistic activiy.\n[1] Peat TJ, Gaikwad SM, Dubois W, Gyabaah-Kessie N, Zhang S, Gorjifard S, Phyo Z, Andres M, Hughitt VK, Simpson RM, Miller MA, Girvin AT, Taylor A, Williams D, D'Antonio N, Zhang Y, Rajagopalan A, Flietner E, Wilson K, Zhang X, Shinn P, Klumpp-Thomas C, McKnight C, Itkin Z, Chen L, Kazandijian D, Zhang J, Michalowski AM, Simmons JK, Keats J, Thomas CJ, Mock BA. Drug combinations identified by high-throughput screening promote cell cycle transition and upregulate Smad pathways in myeloma. Cancer Lett. 2023 Aug 1;568:216284. doi: 10.1016/j.canlet.2023.216284. Epub 2023 Jun 24. PMID: 37356470; PMCID: PMC10408729.\nSEQUENCE No. (e.g., 1, 2, 3, etc.); […] (e.g., Cells, Incubation, Reagent, etc.); VALUE and DESCRIPTION.\n1; Cells; 5 uL; white, solid bottom 1536-well Greiner assay plate.\n2; Compounds; 23 nL; Kalypsis pin tool (Wako USA) equipped with a 1536-well pin head to transfer to the assay plates.\n3; Incubation; 48 hours; 37C incubation.\n4; Reagent;5uL; CellTiter Glo (Promega).\n5; Detector; 425V; Luminescence; Viewlux PerkinElmer.\nNOTES (numbers refer to Sequence numbers above)\n1. The cell-based screening methods employed in this study were like those previously published. Briefly, the corresponding myeloma cell lines were screened in 1,536-well plates with 500 cells, 5-uL per well for inhibition of cell viability (assessed by measuring ATP levels with CellTiterGlo).\n2. NCATS MIPE 4.0 library of approved and investigational drugs were added using the Kalypsis pin tool. Wells treated with DMSO only for 100% viability and media only wells for 0% viability were used as controls.\n3. The assay plates were covered and incubated for 48 hours in a 37C, 5% CO2 incubator with controlled humidity.\n4. After 48 hours, CellTilter-GloTM luminescent substrate mix (Promega) reagent was added to the assay plate and plates we incubated for 5 min at room temperature.\n5. Signal was measured as median relative luminescence units on a ViewLux (PerkinElmer) multiplate reader.\n[1] Heske CM, Davis MI, Baumgart JT, Wilson K, Gormally MV, Chen L, Zhang X, Ceribelli M, Duveau DY, Guha R, Ferrer M, Arnaldez FI, Ji J, Tran HL, Zhang Y, Mendoza A, Helman LJ, Thomas CJ. Matrix Screen Identifies Synergistic Combination of PARP Inhibitors and Nicotinamide Phosphoribosyltransferase (NAMPT) Inhibitors in Ewing Sarcoma. Clin Cancer Res. 2017 Dec 1;23(23):7301-7311. doi: 10.1158/1078-0432.CCR-17-1121. Epub 2017 Sep 12. PMID: 28899971; PMCID: PMC6636827.", "values": [{"smiles": "N[C@@H](C(=O)N[C@@H]1C(=O)N2C(C(=O)O)=C(Cl)CS[C@H]12)c1ccccc1", "Potency": "inconclusive [rising, partial curve, poor fit]"}, {"smiles": "COc1cc2c(c(OC)c1OC)-c1ccc(OC)c(=O)cc1[C@@H](NC(C)=O)CC2", "viability (% of DMSO)": "inactive: 58%"}, {"smiles": "O=C(CN1C(=O)C2(CCCC2)NC[C@H]1c1cc(F)cc(F)c1)Nc1ccc2c(c1)C[C@@]1(C2)C(=O)Nc2ncccc21", "viability (% of DMSO)": "inactive: 116%"}, {"smiles": "CC(=O)NC(CS)C(=O)O", "note": "(stereo not given)", "Potency": "inconclusive [rising, full curve, poor fit]"}, {"smiles": "Clc1ccc(C2(c3ccc(-c4cn[nH]c4)cc3)CCNCC2)cc1", "Potency": "inconclusive [cytotoxic, partial curve]"}, {"smiles": "Nc1c2c(nc3ccccc13)CCCC2", "viability (% of DMSO)": "inactive: 111%"}, {"smiles": "CCCc1nc(C(C)(C)O)c(C(=O)O)n1Cc1ccc(-c2ccccc2-c2nn[nH]n2)cc1", "viability (% of DMSO)": "inactive: 105%"}, {"smiles": "C[C@]12C=CC(=O)C=C1CC[C@@H]1[C@@H]2[C@@H](O)C[C@@]2(C)[C@@H]1CC[C@]2(O)C(=O)CO", "viability (% of DMSO)": "inactive: 117%"}, {"smiles": "OC[C@H](Cc1ccccc1)Nc1nc(Oc2ccc3c(c2)CCC3)nc2c1ncn2Cc1ccc(-c2ccccc2)cc1", "Potency": "inconclusive [cytotoxic, partial curve]"}, {"smiles": "N#CC1(c2cccc(C(=O)Nc3cc(Oc4ccc5nc(NC(=O)C6CC6)sc5n4)ccc3F)c2Cl)CC1", "Potency": "inconclusive [cytotoxic, full curve]"}, {"smiles": "COc1ccc(-c2cc3nccn3c(Nc3ncccc3C(N)=O)n2)cc1OC", "viability (% of DMSO)": "inactive: 88.4%"}, {"smiles": "FC(F)c1nc2ccccc2n1-c1nc(N2CCOCC2)nc(N2CCOCC2)n1", "Potency": "inconclusive [cytotoxic, full curve]"}, {"smiles": "O=C1C(c2c(O)[nH]c3ccccc23)=Nc2ccccc21", "Potency": "inconclusive [cytotoxic, full curve, poor fit]"}, {"smiles": "O=C(O)CCCc1c[nH]c2ccccc12", "viability (% of DMSO)": "inactive: 103%"}, {"smiles": "CC(O)C1C(=O)N2C(C(=O)O)=C(SC3CNC(C(=O)N(C)C)C3)C(C)C12", "note": "(stereo not given)", "viability (% of DMSO)": "inactive: 95.7%"}, {"smiles": "Nc1nc(F)nc2c1ncn2[C@@H]1O[C@H](CO)[C@@H](O)[C@@H]1O", "Potency": "active: 0.296 µM"}, {"smiles": "COc1cc2c(cc1OC)CC(=O)N(CCCN(C)C[C@H]1Cc3cc(OC)c(OC)cc31)CC2", "Potency": "inconclusive [cytotoxic, partial curve]"}, {"smiles": "CN1CCN(c2ncc(-c3cc(Cl)cc(Cl)c3Cl)c(N)n2)CC1", "Potency": "active: 20.9 µM"}, {"smiles": "CCc1ccc(CCOc2ccc(CC3SC(=O)NC3=O)cc2)nc1", "note": "(stereo not given)", "Potency": "inconclusive [cytotoxic, partial curve, poor fit]"}, {"smiles": "Cc1cccc(-c2[nH]c(C(C)(C)C)nc2-c2ccc3c(c2)OCO3)n1", "Potency": "inconclusive [cytotoxic, full curve]"}, {"smiles": "Cc1c(CN2CCN(S(C)(=O)=O)CC2)sc2c(N3CCOCC3)nc(-c3cnc(N)nc3)nc12", "Potency": "active: 0.0662 µM"}, {"smiles": "C=CC(=O)Nc1cccc(Oc2nc(Nc3ccc(N4CCN(C)CC4)cc3OC)ncc2Cl)c1", "Potency": "inconclusive [cytotoxic, single point]"}, {"smiles": "CN1CCN2c3ccccc3Cc3ccccc3C2C1", "note": "(stereo not given)", "viability (% of DMSO)": "inactive: 117%"}, {"smiles": "COc1cccc(Nc2c(C(N)=O)cnc3c(C)cc(S(=O)(=O)c4cccc(C(=O)N(C)C)c4)cc23)c1", "Potency": "inconclusive [cytotoxic, single point]"}, {"smiles": "N#Cc1c(NC(=O)c2cccc3ccccc23)sc2c1CCCC2", "Potency": "inconclusive [cytotoxic, full curve]"}, {"smiles": "Nc1nc(=S)c2[nH]cnc2[nH]1", "viability (% of DMSO)": "inactive: 113%"}, {"smiles": "O=C(C=Cc1c(C(=O)O)[nH]c2cc(Cl)cc(Cl)c12)Nc1ccccc1", "viability (% of DMSO)": "inactive: 110%"}, {"smiles": "CC(C)OC(=O)[C@H](C)N[P@](=O)(OC[C@H]1O[C@@H](n2ccc(=O)[nH]c2=O)[C@](C)(F)[C@H]1O)Oc1ccccc1", "viability (% of DMSO)": "inactive: 114%"}, {"smiles": "CC(C)OC(=O)OCOP(=O)(CO[C@H](C)Cn1cnc2c(N)ncnc21)OCOC(=O)OC(C)C", "Potency": "inconclusive [cytotoxic, single point]"}, {"smiles": "CN(C)c1ccccc1CN1CCCN(Cc2ccccc2N(C)C)C1c1ccncc1", "Potency": "inconclusive [cytotoxic, partial curve]"}, {"smiles": "Cc1[nH]nc2ccc(-c3cncc(OC[C@@H](N)Cc4ccccc4)c3)cc12", "Potency": "active: 2.09 µM"}, {"smiles": "c1cc(OCCN2CCCCC2)cc(-c2n[nH]c3ccc(-c4ncn[nH]4)cc23)c1", "viability (% of DMSO)": "inactive: 82.3%"}, {"smiles": "CCn1c(-c2nonc2N)nc2c(C#CC(C)(C)O)ncc(OC[C@H]3CCCNC3)c21", "Potency": "inconclusive [cytotoxic, full curve]"}, {"smiles": "CC[C@]1(O)C[C@H]2CN(CCC3=c4ccccc4=N[C]3[C@@](C(=O)OC)(c3cc4c(cc3OC)N(C)[C@H]3[C@@](O)(C(N)=O)[C@H](O)[C@]5(CC)C=CCN6CC[C@]43[C@@H]65)C2)C1", "Potency": "inconclusive [cytotoxic, full curve]"}, {"smiles": "Cc1cc(-c2nnc3n2CCCCC3)c(C)n1-c1ccccc1", "Potency": "inconclusive [cytotoxic, single point]"}, {"smiles": "Oc1ccc(C2CNCCc3c2cc(O)c(O)c3Cl)cc1", "note": "(stereo not given)", "viability (% of DMSO)": "inactive: 80.4%"}, {"smiles": "CNC(=O)c1ccc(N2C(=S)N(c3ccc(C#N)c(C(F)(F)F)c3)C(=O)C2(C)C)cc1F", "Potency": "inconclusive [cytotoxic, partial curve, poor fit]"}, {"smiles": "Cc1ccc2c(=O)c3cccc(CC(=O)O)c3oc2c1C", "viability (% of DMSO)": "inactive: 116%"}, {"smiles": "O=c1c(O)c(-c2ccc(O)cc2O)oc2cc(O)cc(O)c12", "Potency": "inconclusive [cytotoxic, full curve, poor fit]"}, {"smiles": "Nc1ncnc2c1c(-c1cccc(OCc3ccccc3)c1)cn2C1CC(CN2CCCC2)C1", "note": "(stereo not given)", "Potency": "active: 5.9 µM"}]}]}
